# Source: the supplement of paper PMC8728848
# Some of the results follow.
# B1: Gal 2 (Canis lupus) (protein)
# chain: MSGKFEVMNMDMKLGGTLKIKGKIAGDADGFVINLGQGSDKLNLHFNPRFHESVIVCNSRNWGQEQRDKHMCFSPGSEVKFTVTFENDGFKVKLPDGHQLTFPNRLGHSHLSYLGVQGGLKVSSFKIE
# Key:
# Assay in all cases: glycan array binding signal (z-score within array); higher = stronger binding
# Conditions in all cases: glycan notation: IUPAC condensed, linker removed
# [1] = target: Neu5Ac(a2-6)Gal(b1-4)GlcNAc(b1-3)GalNAc
# Summary of the method: (§1)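 The binding signal is a Z-score computed within each array and averaged over linkers. Arrays of the same protein sequence at different concentrations or buffers were also averaged together. Data originate from 3228 arrays in the Consortium for Functional Glycomics database, kept only where the protein sequence was available.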
# [2] = target: Neu5Ac(a2-6)Gal(b1-4)GlcNAc6S
# Summary of the method: as §1
# Neu5Ac(a2-6)GalNAc = target: Neu5Ac(a2-6)GalNAc
# Summary of the method: as §1
# [3] = target: Neu5Ac(a2-6)GalNAc(b1-4)GlcNAc
# Summary of the method: as §1
# [4] = target: Neu5Ac(a2-6)GlcNAc(b1-4)GlcNAc
# Summary of the method: as §1
# [5] = target: Neu5Ac(a2-6)GlcNAc(b1-4)GlcNAc(b1-4)GlcNAc
# Summary of the method: as §1
# Neu5Ac(a2-8)Neu5Ac = target: Neu5Ac(a2-8)Neu5Ac
# Summary of the method: as §1
# [6] = target: Neu5Ac(a2-8)Neu5Ac(a2-3)Gal(b1-4)Glc
# Summary of the method: as §1
# [7] = target: Neu5Ac(a2-8)Neu5Ac(a2-3)[Gal(b1-3)GalNAc(b1-4)]Gal(b1-4)Glc
# Summary of the method: as §1
# [8] = target: Neu5Ac(a2-8)Neu5Ac(a2-3)[GalNAc(b1-4)]Gal(b1-4)Glc
# Summary of the method: as §1
# [9] = target: Neu5Ac(a2-8)Neu5Ac(a2-8)Neu5Ac
# Summary of the method: as §1
# [10] = target: Neu5Ac(a2-8)Neu5Ac(a2-8)Neu5Ac(a2-3)Gal(b1-4)Glc
# Summary of the method: as §1
# [11] = target: Neu5Ac(a2-8)Neu5Ac(a2-8)Neu5Ac(a2-3)[GalNAc(b1-4)]Gal(b1-4)Glc
# Summary of the method: as §1
# [12] = target: Neu5Ac(a2-8)Neu5Ac(a2-8)Neu5Ac(a2-8)Neu5Ac(a2-3)[GalNAc(b1-4)]Gal(b1-4)Glc
# Summary of the method: as §1
# [13] = target: Neu5Ac(b2-6)Gal(b1-4)GlcNAc
# Summary of the method: as §1
# Neu5Ac(b2-6)GalNAc = target: Neu5Ac(b2-6)GalNAc
# Summary of the method: as §1
# [14] = target: Neu5Ac9Ac(a2-3)Gal(b1-3)GlcNAc
# Summary of the method: as §1
# [15] = target: Neu5Ac9Ac(a2-3)Gal(b1-4)GlcNAc
# Summary of the method: as §1
# [16] = target: Neu5Ac9Ac(a2-6)Gal(b1-4)GlcNAc
# Summary of the method: as §1
# [17] = target: Neu5Gc(a2-3)Gal(b1-3)GlcNAc
# Summary of the method: as §1
# [18] = target: Neu5Gc(a2-3)Gal(b1-3)[Fuc(a1-4)]GlcNAc
# Summary of the method: as §1
# Neu5Gc(a2-3)Gal(b1-4)Glc = target: Neu5Gc(a2-3)Gal(b1-4)Glc
# Summary of the method: as §1
# [19] = target: Neu5Gc(a2-3)Gal(b1-4)GlcNAc
# Summary of the method: as §1
# [20] = target: Neu5Gc(a2-3)Gal(b1-4)[Fuc(a1-3)]GlcNAc
# Summary of the method: as §1
# [21] = target: Neu5Gc(a2-6)Gal(b1-4)GlcNAc
# Summary of the method: as §1
# Neu5Gc(a2-6)GalNAc = target: Neu5Gc(a2-6)GalNAc
# Summary of the method: as §1
# [22] = target: Neu5Gc(b2-6)Gal(b1-4)GlcNAc
# Summary of the method: as §1
binder,measurement,setting,value
B1,glycan array binding signal (z-score),[1],0.102
same,glycan array binding signal (z-score),[2],-0.151
same,glycan array binding signal (z-score),Neu5Ac(a2-6)GalNAc,-0.513
same,glycan array binding signal (z-score),[3],-0.227
same,glycan array binding signal (z-score),[4],-0.326
same,glycan array binding signal (z-score),[5],-0.115
same,glycan array binding signal (z-score),Neu5Ac(a2-8)Neu5Ac,0.138
same,glycan array binding signal (z-score),[6],-0.355
same,glycan array binding signal (z-score),[7],-0.063
same,glycan array binding signal (z-score),[8],0.24
same,glycan array binding signal (z-score),[9],-0.068
same,glycan array binding signal (z-score),[10],0.04
same,glycan array binding signal (z-score),[11],-0.06
same,glycan array binding signal (z-score),[12],-0.153
same,glycan array binding signal (z-score),[13],-0.11
same,glycan array binding signal (z-score),Neu5Ac(b2-6)GalNAc,-0.068
same,glycan array binding signal (z-score),[14],-0.194
same,glycan array binding signal (z-score),[15],-0.277
same,glycan array binding signal (z-score),[16],-0.357
same,glycan array binding signal (z-score),[17],-0.304
same,glycan array binding signal (z-score),[18],-0.339
same,glycan array binding signal (z-score),Neu5Gc(a2-3)Gal(b1-4)Glc,0.018
same,glycan array binding signal (z-score),[19],-0.159
same,glycan array binding signal (z-score),[20],-0.153
same,glycan array binding signal (z-score),[21],-0.407
same,glycan array binding signal (z-score),Neu5Gc(a2-6)GalNAc,-0.25
same,glycan array binding signal (z-score),[22],-0.415
